Reference: paper PMC7612511 (Advanced therapeutics, 2022)

How the values were obtained:
ColQ1 (collagenase unit) [1] = target: T1, ColQ1 (collagenase unit) (Bacillus cereus, UniProt B9J3S4); conditions: bovine type I collagen 1 mg/mL, 50 ng ColQ1, 250 mM HEPES pH 7.5, 150 mM NaCl, 5 mM CaCl2, 5 × 10^−6 m ZnCl2, 25 °C, 3 h
ColQ1 (collagenase unit) [2] = target: T1, ColQ1 (collagenase unit); conditions: bovine type I collagen 1 mg/mL, 50 ng ColQ1, 250 mM HEPES pH 7.5, 150 mM NaCl, 5 mM CaCl2, 5 × 10^−6 m ZnCl2, 25 °C, 3 h; remark: listed apart in the source
ColQ1 (collagenase unit) [3] = target: T1, ColQ1 (collagenase unit); conditions: 1 × 10^−9 M ColQ1, 2 × 10^−6 m FS1-1, 250 mM HEPES pH 7.5, 400 mM NaCl, 10 mM CaCl2, 10 × 10^−6 m ZnCl2, 5% DMSO, 25 °C, 1 h preincubation; linear regression in 40-60% inhibition range; thiocarbamate

SMILES: CC(=O)c1ccc(NC(=O)CP(=O)(O)O)cc1 [compound 1, Compound 1]
- full inhibition at 75 × 10^-6 m (ColQ1 (collagenase unit) [1]): COL cleavage assay demonstrated a full collagenase inhibition

SMILES: NC(=O)SCC(=O)N(Cc1cccc(Cl)c1)c1ccc(Cl)c(Cl)c1 [compound 2, Compound 2]
- full inhibition at 6 × 10^-6 m (ColQ1 (collagenase unit) [2]): COL cleavage assay demonstrated a full collagenase inhibition
- IC50 (ColQ1 (collagenase unit) [3]): 95 ± 4 × 10^−6 m
